Data reported in PubChem BioAssay AID1159614 (National Center for Advancing Translational Sciences (NCATS), 2016).
Among all 45,000 compounds or so, about 65 (0.1%) were called active. The call rests on the fitted dose curve; in most records, active means well fitted activation curve with a large enough effect; inconclusive means small, poorly fitted or top-dose-only effect; inactive means no such curve, though single readings can be large or run the other way. Some of the results follow.

molecular target: Galactocerebrosidase (Homo sapiens) (UniProt P54803); test: A Novel Cell-Based Assay to Identify Small Molecules for B -Galactocerebrosidase; conditions: 145M-Twi-hGALC-G270D cells (Twitcher mouse brain line with human GALC G270D), HMU-beta-Gal fluorescence, 48 h; series mostly up to 57.5 µM; activation: at the top concentration; further: 0% is about no effect; nearly all actives have a fitted effect of over 65% in size
Sequence of UniProt P54803 (P54803 whole entry, looked up): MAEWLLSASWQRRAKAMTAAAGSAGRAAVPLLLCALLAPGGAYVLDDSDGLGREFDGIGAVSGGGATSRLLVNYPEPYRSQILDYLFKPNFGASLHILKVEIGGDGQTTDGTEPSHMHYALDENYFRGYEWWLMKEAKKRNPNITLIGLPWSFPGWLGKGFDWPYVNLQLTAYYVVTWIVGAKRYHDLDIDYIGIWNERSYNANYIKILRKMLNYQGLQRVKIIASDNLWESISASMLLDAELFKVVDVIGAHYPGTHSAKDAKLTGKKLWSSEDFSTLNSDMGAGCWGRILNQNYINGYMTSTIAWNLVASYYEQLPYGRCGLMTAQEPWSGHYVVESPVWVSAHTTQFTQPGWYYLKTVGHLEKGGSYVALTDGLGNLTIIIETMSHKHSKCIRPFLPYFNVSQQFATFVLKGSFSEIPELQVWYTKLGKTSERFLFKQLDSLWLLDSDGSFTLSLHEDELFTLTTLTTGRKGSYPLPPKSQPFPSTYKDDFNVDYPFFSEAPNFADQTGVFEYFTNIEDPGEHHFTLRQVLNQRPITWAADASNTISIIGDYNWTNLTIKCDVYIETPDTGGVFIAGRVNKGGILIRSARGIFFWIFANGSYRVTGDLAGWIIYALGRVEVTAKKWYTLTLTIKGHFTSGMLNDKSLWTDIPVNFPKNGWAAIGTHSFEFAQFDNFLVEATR
Procedure, shortened: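 Fluorogenic HMU-b-Gal hydrolysis (0.1 mM final, pH 5.2 citrate-phosphate with 1 mg/mL sodium taurocholate; carbonate stop buffer) measures mutant GALC activity after compound treatment of live 145M-Twi Twitcher brain cells stably carrying human GALC-G270D, with wild-type GALC line alongside; activation sought.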

SMILES | activation
CCc1ccc(C2=CC(c3cccc(C)c3)n3c(nc4ccccc43)N2)cc1 (stereo unspecified) | inactive: -9.92%
Cc1ccc(C)c(NC(=O)Cn2cnc3c(oc4ccccc43)c2=O)c1 | inactive: -11.9%
COc1ccc(NC(=O)C(c2ccccc2)N2Cc3ccccc3C2=O)cc1 (stereo unspecified) | inactive: -21.4%
Cc1cc(C)c2c(=O)cc(C(=O)Nc3ccc(C)c(Cl)c3)oc2c1 | inactive: -2.59%
CCC(=O)N1c2ccccc2CC1C(=O)NCCc1ccc(SC)cc1 (stereo unspecified) | inactive: -17.8%
Cc1ccccc1OCCn1cc(C(=O)C2CCCCC2)c2ccccc21 | inactive: -16.4%
COCCn1c(-c2ccccc2)c(C)n2c3c(=O)n(C)c(=O)n(C)c3nc12 | inactive: -3.87%
CCOC(=O)Cn1c(C2CC(=O)N(c3ccc(C)cc3)C2)nc2ccccc21 (stereo unspecified) | inactive: -33.7%
CCNC(=O)N1CCN(CCCC(c2ccc(F)cc2)c2ccc(F)cc2)CC1 | inactive: -8.45%
Cc1ccc(C)c(N2CCN(C(=O)Cn3cnc4sc(C)c(S(=O)(=O)N5CCN(c6ncccn6)CC5)c4c3=O)CC2)c1 | inactive: 7.39%
O=[N+]([O-])c1ccc(C(c2sc3nc(-c4ccco4)nn3c2O)N2CCN(Cc3ccccc3)CC2)cc1 (stereo unspecified) | inactive: 4.17%
Cc1oc(-c2ccccc2Cl)nc1CS(=O)CC(=O)N1CCN(c2cccc(C(F)(F)F)c2)CC1 (stereo unspecified) | inactive: 0.952%
Cc1nc2sccn2c(=O)c1S(=O)(=O)Nc1ccc(N2CCN(C)CC2)cc1 | inactive: -10.1%
COc1cc2c(cc1OC)-c1cc(=Nc3c(C)cc(C)cc3C)n(C)c(=O)n1CC2 | inactive: -16.7%
Cn1nnnc1SCCCNCc1cc(Br)ccc1OCc1ccccc1 | inactive: -7.2%
Cc1cccc(N2CCN(C(=O)c3sc4nc5n(c(=O)c4c3C)CCC5)CC2C)c1 (stereo unspecified) | inactive: -12.6%
CCCCSCCCNC(=O)C1CCN(Cc2nc(-c3ccc(CC)cc3)oc2C)CC1 | inactive: -14.7%
CCCCNc1ccc(C(=O)OCCN(CC)CC)cc1 | inactive: -12.9%
CCOc1ccc(CCNC(=O)C(CC)n2nc(C)c3c(C)n(-c4ccccc4)nc3c2=O)cc1 (stereo unspecified) | inactive: -8.6%
COc1ccc(-c2c(C#N)c(SCC(=O)Nc3ccc(C)c(C)c3)nc(C)c2C(=O)Nc2ccc(Cl)cc2)cc1 | inactive: -8.2%
Cc1cc(-c2ccc(S(=O)(=O)Nc3cccc(C)c3C)s2)on1 | inactive: -29%
CCOC(=O)c1c(C)[nH]c(C)c1S(=O)(=O)N1CCC(C(=O)NCc2ccc(F)cc2)CC1 | inactive: -7.14%
COc1cc(OC)c(NC(=O)NCCn2nnc3cc(S(=O)(=O)N(C)C)ccc32)cc1Cl | inactive: -2.1%
COc1ccc(-c2nn3c(=O)cc(CN4CCN(C(=O)Nc5cc(C)ccc5C)CC4)nc3s2)cc1 | inactive: -17.2%

SMILES | activation
O=C(NC1CCCC1)c1ccc(CSc2nc3cccnc3n2Cc2cccc(F)c2)cc1 | inactive: -13.1%
COC(=O)c1ccc(OCC2c3cc(OC)c(OC)cc3CCN2C(=O)c2ccc(OC)cc2)cc1 (stereo unspecified) | inactive: -21.1%
CC(C)(C)C1CCc2nc(NC(=O)c3cccc(Cl)c3)sc2C1 (stereo unspecified) | inactive: -24.6%
O=c1[nH]c(SCc2ccccc2)nc2c1CCCC2 | inactive: -8.65%
Cc1nc2ccn(Cc3cccnc3)c(=O)c2cc1C(=O)NCc1ccccc1 | inactive: -13.8%
O=C(CSc1nnc(-c2ccccc2Br)n1-c1ccccc1)c1ccc(F)cc1 | inactive: -31.3%
Cc1ccc2oc(=O)n(CCNC(=O)Nc3ccccc3C)c2c1 | inactive: -0.101%
CCc1ccc(OCC(=O)Nc2ccc(S(=O)(=O)Nc3onc(C)c3C)cc2)cc1 | inactive: 11.8%
COc1ccc(OC2CCN(S(=O)(=O)c3cccc(F)c3)CC2)cc1 | inactive: 11.7%
CCCCn1c(=O)c2oc3ccccc3c2n(CC(=O)Nc2cc(C)ccc2C)c1=O | inactive: -12.4%
Cc1ccc(CNC(=O)Cc2c(C(=O)O)c(C)cn2C)cc1 | inactive: -11.2%
CC(=O)N1CCCC1c1nc2ccccc2n1Cc1c(F)cccc1Cl (stereo unspecified) | inactive: -8.89%
COc1ccc(NC(=O)C2=C(C)Nc3ncnn3C2c2sccc2C)cc1 (stereo unspecified) | inactive: 4.09%
COc1cc(OC)c(NC(=O)Cc2c(C(=O)O)c(C)cn2C)cc1Cl | inactive: -11%
COc1ccc(C2C(C(=O)Nc3ccccc3)=C(C)Nc3nc(-c4ccccc4)nn32)c(OC)c1 (stereo unspecified) | inactive: -22%
Cc1cccc(NC(=O)Cn2c(=O)n(CCc3ccccc3)c(=O)c3ccccc32)c1 | inactive: -9.57%
CCOc1ccc(CN2C(=O)c3ccccc3Sc3ccc(C(=O)NCc4ccc5c(c4)OCO5)cc32)cc1 | inactive: -19%
Cc1ccccc1NC(=O)Nc1csc2c1CCCC2 | inactive: -17.7%
COc1ccc(C(=O)CSc2nc3cc(C(=O)NC4CCCC4)ccc3c(=O)n2CC2CCCO2)cc1 (stereo unspecified) | inactive: -10.4%
Cc1cccc(C(=O)N2CCNC(=O)C2CC(=O)Nc2ccc(F)cc2)c1 (stereo unspecified) | inactive: -5.22%
COc1ccc(C)cc1NC(=O)C(NS(=O)(=O)c1cccs1)c1ccccc1 (stereo unspecified) | inactive: -8.04%
COc1cc(OC)c(NC(=O)c2sc3nc4n(c(=O)c3c2C)CCCC4)cc1Cl | inactive: -4.62%
COc1ccc(S(=O)(=O)NCCc2sc(C)nc2C)cc1 | inactive: -39%
CCCc1cnc2c(c1SCc1cccc(C)c1)c(=O)n(C)c(=O)n2C | inactive: -17.5%

SMILES | activation
CCCOc1cccc(C(=O)Nc2cc(-c3nc4ccccc4[nH]3)ccc2C)c1 | inactive: -14.9%
CCn1c(CNC(=O)C23CC4CC(CC(C4)C2)C3)nnc1SCC(=O)Nc1ccc(C)cc1 | inactive: -2.88%
CCOC(=O)[C@H](CCc1ccccc1)N[C@H]1CCc2ccccc2N(CC(=O)O)C1=O | inactive: -9.26%
CC(=O)c1ccc(NC(=O)c2sc(-n3nc(C)c(CCC(C)C)c3C)nc2C)cc1 | inactive: -10.5%
Cc1ccc2c(Sc3ccccc3)c(C(=O)NCc3ccccc3F)[nH]c2c1 | inactive: -7.02%
CCOc1ccccc1NC(=O)CSc1nc2ccccc2nc1Cc1ccc(C)cc1 | inactive: -9.17%
Cc1ccc(S(=O)Cc2ccc(C(=O)NCc3ccc(OC(C)C)cc3)o2)cc1 (stereo unspecified) | inactive: -7.14%
Cc1nc2c3cccnc3nn2c(C)c1CCC(=O)NCc1ccccc1Cl | inactive: -10.3%
Cc1cc(C)cc(NC(=O)c2nnn(Cc3cccc(Br)c3)c2N)c1 | inactive: -39.8%
Cc1ccc(CCNC(=O)CN2C(=O)COc3ccc(S(=O)(=O)N4CCCC4)cc32)cc1 | inactive: -11.4%
O=C(CC1C(=O)OCCN1Cc1ccccc1)Nc1cccc(Cl)c1 (stereo unspecified) | inactive: -10.7%
CCOc1cc(Cn2c(-c3ccc(O)c(OCC)c3)nc3ccccc32)ccc1O | inactive: -15.1%
COc1ccc(-n2c(-c3ccccc3F)nc3c(cnn3-c3ccc(C)cc3)c2=O)cc1 | inactive: -6.56%
CCCCC(=O)N1CC(=O)Nc2ccc(F)cc2C1c1ccc(F)cc1 (stereo unspecified) | inactive: -6.18%
CS(=O)(=O)c1ncc(N(Cc2ccco2)Cc2cccs2)c(C(=O)Nc2ccccc2F)n1 | inactive: -20.6%
COc1ccc(Cl)cc1NC(=O)C(C)n1c(=O)cc(C(F)(F)F)c2c(C)nn(C)c21 (stereo unspecified) | inactive: -21.6%
CC(C)(C)OC(=O)N1CCC(c2nnc(SCc3ccccc3Cl)o2)CC1 | inactive: -10.1%
CCc1c(C)sc2c1CCN(C(=O)Nc1ccccc1Cl)C2c1ccc(OC)cc1 (stereo unspecified) | inactive: -8.29%
Cc1ccc(-c2noc(-c3ccc(NC4CCCC4)c([N+](=O)[O-])c3)n2)cc1 | inactive: 14%
Cc1cc(Cl)ccc1NC(=O)C1CCCN1S(=O)(=O)c1ccc2c(c1)CCCC(=O)N2 (stereo unspecified) | inactive: -8.55%
CCCCCCCCCCCCCCCC[N+](C)(C)CC | inactive: -16.9%
Cc1cc(-n2c(SCc3ccccc3F)nc3[nH]ncc3c2=O)ccc1Cl | inactive: -23.7%
CCOC(=O)OC(C)OC(=O)[C@@H]1N2C(=O)[C@@H](NC(=O)[C@H](N)c3ccccc3)[C@H]2SC1(C)C (stereo partly specified) | inactive: -14.9%
CCOc1ccc(CNC(=O)CCCn2nc(C)c3c(C)n(-c4ccc(C)cc4)nc3c2=O)cc1 | inactive: -4.41%

SMILES | activation
COc1ccc(N2C(=O)NC(NS(=O)(=O)c3ccc(NC(C)=O)cc3)(C(F)(F)F)C2=O)cc1 (stereo unspecified) | inactive: -7.67%
CC1CCc2onc(C(=O)N3CCN(c4ccc(Cl)cc4)CC3)c2C1 (stereo unspecified) | inactive: -15.2%
Cc1ccc(Cn2ccn(Cc3ccc(C)cc3)c(=O)c2=O)cc1 | inactive: -12.8%
CCN1CCN(C(=O)Cn2c(-c3cccs3)cc3cc(Cl)ccc32)CC1 | inactive: -15.1%
Cc1ccc(C)c(N2CCN(C(=O)CCc3c(C)nc4c(c3C)c(=O)n(C)c(=O)n4C)CC2)c1 | inactive: -4.88%
CCc1ccc(NC(=O)Cn2cnc3nc4c(cc3c2=O)CCCC4)cc1 | inactive: -31.8%
Cc1ccc(C(=O)N2CC(=O)Nc3ccc(Br)cc3C2c2ccc(F)cc2)cc1C (stereo unspecified) | inactive: -2.02%
CCOC(=O)c1cc2c(=O)n3ccccc3nc2n(CC(C)C)c1=NC(=O)C(C)(C)Oc1ccc(Cl)cc1 | inactive: -14.2%
CC(C)CCNC(=O)c1c[nH]c2ccc(S(=O)(=O)Nc3cccc(C(F)(F)F)c3)cc2c1=O | inactive: -11.9%
COc1ccccc1CNC(=O)C1CCN(c2ncnc3c2nc2n3CCCCC2)CC1 | inactive: -21.6%
CCc1ccc(-n2c3nc(=O)[nH]c(=O)c-3cc3c(C)nn(-c4ccccc4)c32)cc1 | inactive: -7.63%
COc1ccc(C(CNC(=O)c2oc3ccccc3c2C)N2CCCCC2)cc1 (stereo unspecified) | inactive: -13.9%
O=C(Cn1c(-c2cccs2)cc2ccccc21)NCCCN1CCN(c2cccc(Cl)c2)CC1 | inactive: -11.6%
CCc1nnc(NC(=O)CSc2nccn2Cc2ccccc2)s1 | inactive: -35.3%
O=C1CCCc2cc(S(=O)(=O)N3CCCC(C(=O)NCc4ccccc4Cl)C3)ccc2N1 (stereo unspecified) | inactive: -32.1%
COc1cc(Cl)c(C)cc1NC(=O)c1c(C)oc2nc(C)nc(N3CCCC3)c12 | inactive: -5.88%
Cc1noc(-c2ccc(N3CCCCC3C)c([N+](=O)[O-])c2)n1 (stereo unspecified) | inactive: -2.56%
CCC(=O)N1CCc2cc(CNS(=O)(=O)c3ccccc3F)ccc21 | inactive: -31%
Cc1cc(C)cc(NS(=O)(=O)c2ccc3[nH]cc(C(=O)N4CCCCC4)c(=O)c3c2)c1 | inactive: 4.04%
Cc1ccc(-c2noc(-c3nnn(CC(=O)Nc4ccc(C)cc4Cl)c3N)n2)cc1 | inactive: -4.18%
Cc1ccc(-n2c(=O)c3oc4ccccc4c3n(Cc3ccccc3)c2=O)cc1C | inactive: -16.3%
CS(=O)(=O)c1ncc(Cl)c(C(=O)N(Cc2ccc(Cl)cc2)Cc2ccco2)n1 | inactive: -11.3%
Cc1cccc(OCC(=O)Nc2nnc(S(=O)(=O)N3CCCCCC3)s2)c1 | inactive: -9.91%
Cc1ccc(-n2nc(C(=O)NC(C)C)c(=O)n(C)c2=O)cc1 | inactive: -15.2%
